# Results: the supplement of paper PMC8728848
# The list shows a part of the results.
# B1: Neuropilin-1 (Homo sapiens), O14786 (protein)
# chain: FKCMEALGMESGEIHSDQITASSQYSTNWSAERSRLNYPENGWTPGEDSYREWIQVDLGLLRFVTAVGTQGAISKETKKKYYVKTYKIDVSSNGEDWITIKEGNKPVLFQGNTNPTDVVVAVFPKPLITRFVRIKPATWETGISMRFEVYGCKITDYPCSGMLGMVSGLISDSQITSSNQGDRNWMPENIRLVTSRSGWALPPAPHSYINEWLQIDLGEEKIVRGIIIQGGKHRENKVFMRKFKIGYSNNGSDWKMIMDDSKRKAKSFEGNNNYDTPELRTFPALSTRFIRIYPERATHGGLGLRMELLGCEVE
# Columns and labels:
# Test in all cases: glycan array binding signal (z-score within array); higher = stronger binding
# Conditions in all cases: glycan notation: IUPAC condensed, linker removed
# [1] = biological target: Fuc(a1-3)[Gal(b1-4)]Glc6S
# Outline: (§1)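 Glycan array data were curated from 3228 arrays in the Consortium for Functional Glycomics database and kept only where the protein sequence was available. Glycan names were converted to IUPAC-condensed notation, and columns mapping to the same glycan were averaged. The binding signal is a within-array Z-score, averaged across arrays of the same protein sequence at different concentrations or buffers and across linkers. Negative Z-scores can be read as non-binding.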
# [2] = biological target: Fuc(a1-3)[Gal(b1-4)]GlcNAc
# Outline: as §1
# [3] = biological target: Fuc(a1-3)[Gal(b1-4)]GlcNAc(b1-2)Man(a1-3)[Fuc(a1-3)[Gal(b1-4)]GlcNAc(b1-2)Man(a1-6)]Man(b1-4)GlcNAc(b1-4)GlcNAc
# Outline: as §1
# [4] = biological target: Fuc(a1-3)[Gal(b1-4)]GlcNAc(b1-2)Man(a1-6)[Gal(b1-4)GlcNAc(b1-2)Man(a1-3)]Man(b1-4)GlcNAc(b1-4)GlcNAc
# Outline: as §1
# [5] = biological target: Fuc(a1-3)[Gal(b1-4)]GlcNAc(b1-3)Gal(b1-3)[Fuc(a1-4)]GlcNAc
# Outline: as §1
# [6] = biological target: Fuc(a1-3)[Gal(b1-4)]GlcNAc(b1-4)Gal(b1-4)[Fuc(a1-3)]GlcNAc
# Outline: as §1
# [7] = biological target: Fuc(a1-3)[Gal(b1-4)]GlcNAc(b1-4)Gal(b1-4)[Fuc(a1-3)]GlcNAc(b1-4)Gal(b1-4)[Fuc(a1-3)]GlcNAc
# Outline: as §1
# [8] = biological target: Fuc(a1-3)[Gal(b1-4)]GlcNAc6S
# Outline: as §1
# [9] = biological target: Fuc(a1-3)[Gal3S(b1-4)]Glc6S
# Outline: as §1
# [10] = biological target: Fuc(a1-3)[Gal3S(b1-4)]GlcNAc
# Outline: as §1
# [11] = biological target: Fuc(a1-3)[Gal3S(b1-4)]GlcNAc6S
# Outline: as §1
# [12] = biological target: Fuc(a1-3)[GalNAc(b1-4)]GlcNAc
# Outline: as §1
# Fuc(a1-4)GlcNAc = biological target: Fuc(a1-4)GlcNAc
# Outline: as §1
# Fuc(b1-3)GlcNAc = biological target: Fuc(b1-3)GlcNAc
# Outline: as §1
# Gal(a1-2)Gal = biological target: Gal(a1-2)Gal
# Outline: as §1
# Gal(a1-3)Gal = biological target: Gal(a1-3)Gal
# Outline: as §1
# Gal(a1-3)Gal(b1-3)GlcNAc = biological target: Gal(a1-3)Gal(b1-3)GlcNAc
# Outline: as §1
# Gal(a1-3)Gal(b1-4)Glc = biological target: Gal(a1-3)Gal(b1-4)Glc
# Outline: as §1
# Gal(a1-3)Gal(b1-4)GlcNAc = biological target: Gal(a1-3)Gal(b1-4)GlcNAc
# Outline: as §1
# [13] = biological target: Gal(a1-3)Gal(b1-4)[Fuc(a1-3)]GlcNAc
# Outline: as §1
# [14] = biological target: Gal(a1-3)Gal(b1-4)[Fuc(a1-3)]GlcNAc(b1-2)Man(a1-3)[Gal(a1-3)Gal(b1-4)[Fuc(a1-3)]GlcNAc(b1-2)Man(a1-6)]Man(b1-4)GlcNAc(b1-4)GlcNAc
# Outline: as §1
# Gal(a1-3)GalNAc = biological target: Gal(a1-3)GalNAc
# Outline: as §1
# [15] = biological target: Gal(a1-3)[Gal(a1-4)]Gal(b1-4)GlcNAc
# Outline: as §1
# Gal(a1-4)Gal(b1-4)Glc = biological target: Gal(a1-4)Gal(b1-4)Glc
# Outline: as §1
# Gal(a1-4)Gal(b1-4)GlcNAc = biological target: Gal(a1-4)Gal(b1-4)GlcNAc
# Outline: as §1
# [16] = biological target: Gal(a1-4)Gal(b1-4)GlcNAc(b1-3)Gal(b1-4)Glc
# Outline: as §1
# Gal(a1-4)GlcNAc = biological target: Gal(a1-4)GlcNAc
# Outline: as §1
# Gal(a1-6)Glc = biological target: Gal(a1-6)Glc
# Outline: as §1
# Gal(b1-2)Gal = biological target: Gal(b1-2)Gal
# Outline: as §1
# Gal(b1-3)Gal = biological target: Gal(b1-3)Gal
# Outline: as §1
# Gal(b1-3)Gal(b1-4)GlcNAc = biological target: Gal(b1-3)Gal(b1-4)GlcNAc
# Outline: as §1
# [17] = biological target: Gal(b1-3)Gal(b1-4)GlcNAc(b1-2)Man(a1-3)[Gal(b1-3)Gal(b1-4)GlcNAc(b1-2)Man(a1-6)]Man(b1-4)GlcNAc(b1-4)GlcNAc
# Outline: as §1
# Gal(b1-3)GalNAc = biological target: Gal(b1-3)GalNAc
# Outline: as §1
# [18] = biological target: Gal(b1-3)GalNAc(a1-3)[Fuc(a1-2)]Gal(b1-4)Glc
# Outline: as §1
# [19] = biological target: Gal(b1-3)GalNAc(a1-3)[Fuc(a1-2)]Gal(b1-4)GlcNAc
# Outline: as §1
# [20] = biological target: Gal(b1-3)GalNAc(b1-3)Gal(a1-4)Gal(b1-4)Glc
# Outline: as §1
# [21] = biological target: Gal(b1-3)GalNAc(b1-4)Gal(b1-4)Glc
# Outline: as §1
# [22] = biological target: Gal(b1-3)GalNAc(b1-4)[Neu5Ac(a2-3)]Gal(b1-4)Glc
# Outline: as §1
# Gal(b1-3)GlcNAc = biological target: Gal(b1-3)GlcNAc
# Outline: as §1
# [23] = biological target: Gal(b1-3)GlcNAc(b1-2)Man(a1-3)[Gal(b1-3)GlcNAc(b1-2)Man(a1-6)]Man(b1-4)GlcNAc(b1-4)GlcNAc
# Outline: as §1
# [24] = biological target: Gal(b1-3)GlcNAc(b1-2)Man(a1-3)[Gal(b1-3)GlcNAc(b1-2)Man(a1-6)]Man(b1-4)GlcNAc(b1-4)[Fuc(a1-6)]GlcNAc
# Outline: as §1
# [25] = biological target: Gal(b1-3)GlcNAc(b1-3)Gal(b1-3)GlcNAc
# Outline: as §1
# [26] = biological target: Gal(b1-3)GlcNAc(b1-3)Gal(b1-4)Glc
# Outline: as §1
# [27] = biological target: Gal(b1-3)GlcNAc(b1-3)Gal(b1-4)GlcNAc
# Outline: as §1
# [28] = biological target: Gal(b1-3)[Fuc(a1-4)]GlcNAc
# Outline: as §1
binder,measurement,setting,value
B1,glycan array binding signal (z-score),[1],0.455
same,glycan array binding signal (z-score),[2],-0.168
same,glycan array binding signal (z-score),[3],10.4
same,glycan array binding signal (z-score),[4],-0.302
same,glycan array binding signal (z-score),[5],0.083
same,glycan array binding signal (z-score),[6],-0.136
same,glycan array binding signal (z-score),[7],-0.255
same,glycan array binding signal (z-score),[8],0.145
same,glycan array binding signal (z-score),[9],3.54
same,glycan array binding signal (z-score),[10],-0.158
same,glycan array binding signal (z-score),[11],1.03
same,glycan array binding signal (z-score),[12],-0.249
same,glycan array binding signal (z-score),Fuc(a1-4)GlcNAc,-0.209
same,glycan array binding signal (z-score),Fuc(b1-3)GlcNAc,-0.32
same,glycan array binding signal (z-score),Gal(a1-2)Gal,-0.146
same,glycan array binding signal (z-score),Gal(a1-3)Gal,-0.255
same,glycan array binding signal (z-score),Gal(a1-3)Gal(b1-3)GlcNAc,-0.296
same,glycan array binding signal (z-score),Gal(a1-3)Gal(b1-4)Glc,0.116
same,glycan array binding signal (z-score),Gal(a1-3)Gal(b1-4)GlcNAc,0.097
same,glycan array binding signal (z-score),[13],-0.27
same,glycan array binding signal (z-score),[14],3.1
same,glycan array binding signal (z-score),Gal(a1-3)GalNAc,-0.159
same,glycan array binding signal (z-score),[15],-0.225
same,glycan array binding signal (z-score),Gal(a1-4)Gal(b1-4)Glc,-0.244
same,glycan array binding signal (z-score),Gal(a1-4)Gal(b1-4)GlcNAc,-0.196
same,glycan array binding signal (z-score),[16],-0.226
same,glycan array binding signal (z-score),Gal(a1-4)GlcNAc,-0.275
same,glycan array binding signal (z-score),Gal(a1-6)Glc,-0.168
same,glycan array binding signal (z-score),Gal(b1-2)Gal,-0.245
same,glycan array binding signal (z-score),Gal(b1-3)Gal,0.075
same,glycan array binding signal (z-score),Gal(b1-3)Gal(b1-4)GlcNAc,-0.22
same,glycan array binding signal (z-score),[17],6.05
same,glycan array binding signal (z-score),Gal(b1-3)GalNAc,-0.146
same,glycan array binding signal (z-score),[18],-0.303
same,glycan array binding signal (z-score),[19],-0.28
same,glycan array binding signal (z-score),[20],-0.275
same,glycan array binding signal (z-score),[21],-0.287
same,glycan array binding signal (z-score),[22],-0.3
same,glycan array binding signal (z-score),Gal(b1-3)GlcNAc,-0.195
same,glycan array binding signal (z-score),[23],-0.27
same,glycan array binding signal (z-score),[24],-0.201
same,glycan array binding signal (z-score),[25],-0.294
same,glycan array binding signal (z-score),[26],-0.295
same,glycan array binding signal (z-score),[27],-0.248
same,glycan array binding signal (z-score),[28],-0.122
